Where a name gives a salt, the structure may show the parent alone. ± gives the standard deviation of the averaged measurements. This is one part of the list. Most values come without repeats; read them as rough.
Key:
Test in all cases: log2 surviving fraction relative to plate median (drug vs vehicle, or drug+dl922-947 vs dl922-947 alone); ovarian cancer lines: OVCAR4 is platinum-sensitive while Ov4Cis resists cisplatin and Ov4Carbo carboplatin; higher = more cell survival
Settings in all cases: compound concentration: 10 uM, 192 h
OVCAR4 = system: OVCAR4
Ov4Carbo = system: Ov4Carbo
Ov4Cis = system: Ov4Cis
[1] = dl922-947 oncolytic adenovirus co-treatment: MOI 10
[2] = dl922-947 oncolytic adenovirus co-treatment: none

Compound | log2 surviving fraction (OVCAR4; [1]) | log2 surviving fraction (OVCAR4; [2]) | log2 surviving fraction (Ov4Carbo; [1]) | log2 surviving fraction (Ov4Carbo; [2]) | log2 surviving fraction (Ov4Cis; [1]) | log2 surviving fraction (Ov4Cis; [2])
Oc1ccc(OCc2ccccc2)cc1 [Monobenzone (Benoquin)] | -2.15 ± 1.3 | -3.15 ± 0.29 | -3.62 | -7.03 | -3.84 | -2.93
CCOc1nc2cccc(C(=O)O)c2n1Cc1ccc(-c2ccccc2-c2noc(=O)[nH]2)cc1 [Azilsartan (TAK-536)] | 0.3 ± 0.095 | 0.854 ± 1 | 2.97 | -0.383 | 0.47 | -1.38
CCCC(=O)Nc1ccc(OCC(O)CNC(C)C)c(C(C)=O)c1 (centres undefined) [Acebutolol HCl] | 0.794 ± 0.34 | 1.01 ± 0.22 | -0.228 | -1.26 | 0.514 | 0.156
CCOC(=O)[C@H](CCc1ccccc1)N[C@@H](C)C(=O)N1Cc2ccccc2C[C@H]1C(=O)O [Quinapril HCl (Accupril)] | -0.305 ± 0.35 | 0.33 ± 0.49 | 0.539 | -0.0911 | -0.413 | 0.618
CCN(CC)CCCC(C)Nc1ccnc2cc(Cl)ccc12 (centres undefined) [Chloroquine Phosphate] | -0.253 ± 0.26 | 0.541 ± 0.19 | -0.203 | 0.526 | 0.587 | 0.719
CCN1CCN(C(=O)N[C@@H](C(=O)N[C@@H]2C(=O)N3[C@@H]2SC(C)(C)[C@@H]3C(=O)O)c2ccccc2)C(=O)C1=O [Piperacillin Sodium] | 0.295 ± 0.42 | 0.899 ± 0.43 | -0.784 | 0.382 | -0.386 | -0.427
OC(Cn1cncn1)(Cn1cncn1)c1ccc(F)cc1F [Fluconazole] | 0.329 ± 0.83 | 0.296 ± 0.34 | 0.0658 | -0.4 | 0.629 | 0.41
CC1(C)S[C@@H]2[C@H](NC(=O)[C@H](N)c3ccc(O)cc3)C(=O)N2[C@H]1C(=O)O [Amoxicillin sodium (Amox)] | -0.302 ± 0.44 | -0.514 ± 0.15 | -0.646 | 0.576 | -1.45 | -0.117
CO[C@H]1/C=C/O[C@@]2(C)Oc3c(C)c(O)c4c(O)c(c(/C=N/N5CCN(C)CC5)c(O)c4c3C2=O)NC(=O)/C(C)=C\C=C\[C@H](C)[C@H](O)[C@@H](C)[C@@H](O)[C@@H](C)[C@H](OC(C)=O)[C@@H]1C [Rifampin (Rifadin, Rimactane)] | 0.666 ± 0.32 | -1.2 ± 0.63 | -1.01 | 1.37 | -0.0738 | 0.415
CC[C@H]1CN2CCc3cc(OC)c(OC)cc3[C@@H]2C[C@@H]1C[C@H]1NCCc2cc(OC)c(OC)cc21 [Emetine] | -8.56 ± 0.86 | -10.8 ± 7.2 | -5.73 | -11.3 | -4.86 | -12
C[N+](C)(C)CCCCCCCCCC[N+](C)(C)C [Decamethonium bromide] | -0.365 ± 0.41 | -0.55 ± 0.71 | 0.213 | 0.231 | 0.0586 | -1.64
O=C1c2c(O)ccc(O)c2C(=O)c2c(NCCNCCO)ccc(NCCNCCO)c21 [Mitoxantrone Hydrochloride] | -8.67 ± 1.3 | -12.1 ± 6.9 | -7.36 | -11.9 | -8.02 | -15.8
COc1ccc(CC2c3cc(OC)c(OC)cc3CC[N+]2(C)CCC(=O)OCCCCCOC(=O)CC[N+]2(C)CCc3cc(OC)c(OC)cc3C2Cc2ccc(OC)c(OC)c2)cc1OC (centres undefined) [Atracurium besylate] | 0.488 ± 0.42 | -0.0402 ± 0.038 | -0.146 | 0.0568 | 0.106 | -0.0681
Cc1cc2c(cc1S(N)(=O)=O)S(=O)(=O)CCC2 [Meticrane] | 0.00345 ± 0.76 | 0.0352 ± 0.52 | -0.329 | -0.261 | -0.216 | -0.93
CCN(CC)CCNC(C(=O)OCCC(C)C)c1ccccc1 (centres undefined) [Camylofin Chlorhydrate] | -1.67 ± 0.23 | -0.752 ± 0.41 | -1.91 | -0.507 | -1.05 | -0.253
COc1ccc2c(c1)c(CC(=O)O)c(C)n2C(=O)c1ccc(Cl)cc1 [Indomethacin (Indocid, Indocin)] | -0.0924 ± 0.9 | -0.0802 ± 0.37 | -0.48 | 0.858 | 0.909 | -0.00724
CN(Cc1cc(Br)cc(Br)c1N)C1CCCCC1 [Bromhexine HCl] | 0.462 ± 0.012 | -0.0511 ± 0.52 | -1.12 | 0.367 | 1.43 | 0.173
CN1CCN(c2c(F)cc3c(=O)c(C(=O)O)cn4c3c2OCN4C)CC1 [Marbofloxacin] | 1.49 ± 0.73 | 0.496 ± 0.53 | 0.857 | 1.25 | -0.352 | 0.798
CC(=O)OC1CN2CCC1CC2 (centres undefined) [Aceclidine HCl] | 0.401 ± 0.45 | 0.748 ± 0.39 | -0.624 | 0.207 | 0.483 | -1.7
C[C@H]1NC(=O)NC1=O [Methylhydantoin-5-(D)] | 0.527 ± 1.1 | 0.774 ± 1.1 | -0.114 | 0.443 | 0.955 | -0.206
N=C(N)NC(=O)c1nc(Cl)c(N)nc1N [Amiloride hydrochloride dihydrate] | 0.389 ± 0.24 | 0.285 ± 0.32 | 0.804 | -1.54 | 0.176 | 0.712
O=C(Nc1cccc2c(=O)cc(-c3nnn[nH]3)oc12)c1ccc(OCCCCc2ccccc2)cc1 [Pranlukast] | 0.165 ± 0.93 | 0.377 ± 0.26 | 0.311 | 0.58 | 0.339 | -0.12
O=P(O)(O)C(Cl)(Cl)P(=O)(O)O [Clodronate Disodium] | 0.739 ± 0.33 | 0.641 ± 0.36 | 0.0089 | 0.636 | 0.897 | 0.814
O=C1CCc2cc(OCCCCc3nnnn3C3CCCCC3)ccc2N1 [Cilostazol] | -0.0724 ± 0.47 | 0.172 ± 0.098 | -0.293 | 0.0519 | -0.417 | 0.00792

— the supplement of paper PMC8813932
